Results taken from the antibiotic and cytotoxicity screens of Wong et al. (2023).
Some of the results follow.

test system: S. aureus RN4220; assay: growth inhibition call (relative growth <= 0.2); details: 50 µM

Growth inhibition call, inactive:
C[C@@H]1O[C@@H](O[C@@H]2[C@@H](O)[C@H](O)[C@@H](CO)O[C@H]2c2c(O)cc(O)c3c(=O)cc(-c4ccc(O)cc4)oc23)[C@H](O)[C@H](O)[C@H]1O
C/C=C/c1cnc2c(c1)C(=O)N([C@H](C)CO)C[C@H](C)[C@H](CN(C)S(=O)(=O)c1ccc(OC)cc1)O2
Cc1ccc(S(=O)(=O)Nc2ccc3c(c2)C(=O)N([C@H](C)CO)C[C@@H](C)[C@H](CN(C)Cc2ccncc2)OCCCC[C@@H](C)O3)cc1
O=C1O[C@@H](c2ccccc2)[C@@H](c2ccccc2)N2[C@@H](c3ccc(OCCO)cc3)[C@]3(C(=O)Nc4ccc(C#CC5=CCCCC5)cc43)[C@@H](C(=O)NC[C@H](O)c3ccccc3)[C@H]12
C[C@@H]1CN([C@@H](C)CO)C(=O)c2cccc(NC(=O)c3nc4ccccc4s3)c2O[C@H]1CN(C)S(=O)(=O)c1cn(C)cn1
Cn1cnc(S(=O)(=O)N2C[C@@H](O)COC[C@@H]3O[C@H](CC(=O)N4CCN(c5ccccc5)CC4)CC[C@H]32)c1
C[C@H]1CN([C@@H](C)CO)S(=O)(=O)c2ccc(Br)cc2O[C@H]1CN(C)C(=O)c1cccc(F)c1
C[C@@H]1CCCCO[C@H](CN(C)Cc2ccc(C(F)(F)F)cc2)[C@@H](C)CN([C@H](C)CO)C(=O)c2cc(NS(=O)(=O)c3ccc(Cl)cc3)ccc2O1
C[C@H](CO)N1C[C@H](C)[C@@H](CN(C)C(=O)Nc2cccc3ccccc23)Oc2c(NS(=O)(=O)c3ccc(F)cc3)cccc2C1=O
